According to article PMC12136788:
This is one part of the list.

B1: chr19:15271381:15271382:-_ENSG00000074181_ENST00000263388|hu_hu|motif|central (ssRNA)
RNA: GGGAGUUCUACAGUCCGACGAUCACGCUGCAAGGCAAGGAUGCAGGAGGGUUGGUGGAAAGAGAAGAGGAUGAAAAAGACGGAAAGGAAGGAAGAGACAGAGAAAGAAAGGAGGCAGGACGGGGGUCUCUUUAGGCCCCCAAGCAACAGAGGAUUGAGCAUCA
B2: chr16:45382771:45382772:-_ENSMUSG00000022661_ENSMUST00000163230|mus_mus|mus_mus_mus_hu_True|1_58 (ssRNA)
RNA: GGGAGUUCUACAGUCCGACGAUCCUGGGUCAUGUUAUAAGACAAAUGGACAGGGAGGGCAUGCUUCUCAAAAAAUGUGAACUACUCUCUAAGACUAACAAUAUUUAUCUAGCUAUAAAAAUAAGUUAAAUGAAUAAACAUUACCAACAGAGGAUUGAGCAUCA
B3: chr2:157383019:157383020:-_ENSMUSG00000067787_ENSMUST00000109528|mus_hu|FALSE|FALSE (ssRNA)
RNA: GGGAGUUCUACAGUCCGACGAUCGCUUGAGCCCAGACACCCAGGUGAAAGAGCAACAUCUAUCUGUUGCUUCCUUUCUUAAAAAUGAAGUGGAGAAAAUACUGAAGAUUUGUGGACAACUAACAGUCAAGACAUGUUUCUGUCCAACAGAGGAUUGAGCAUCA
B4: chr14:76904430:76904431:+_ENSMUSG00000022010_ENSMUST00000022587|mus_mus|mus_mus_mus_hu_True|38_78 (ssRNA)
RNA: GGGAGUUCUACAGUCCGACGAUCUGCAGCCAAAAACACCCUCGUGGAAAAAAAGAGCAAGCUCCAGCAGCCUUGUAUAAGCUAGAUAAAAUCUUCUAGCUGUCUGCAGCCCAGGGAGAAACAGAAAACGGCAGCCCUAAUUUACAACAGAGGAUUGAGCAUCA
B5: chr12:118471567:118471568:-_ENSG00000176871_ENST00000315436|hu_mus|FALSE|FALSE (ssRNA)
RNA: GGGAGUUCUACAGUCCGACGAUCAGCAGGGAACCAAACACCAGAGUUCCUCUGACCACAACGGAGGAACUUCAAACCAUGCAGCCGCUGGCUGGAAAUAGGCAGCAGAAAUGCCCUACGUGGCAGGUACUUCCCAGUUAAGGGCAACAGAGGAUUGAGCAUCA
B6: chr14:78183846:78183847:+_ENSG00000119705_ENST00000557342|hu_hu|hu_hu_hu_mus_False|48_58 (ssRNA)
RNA: GGGAGUUCUACAGUCCGACGAUCUCUCAGAAAUCUUUCUUCAUCAGAUGUUUGAGCUCCGUGCAAAGCCUUUGCUCUUCUAGUGUGAACCUGGACCUAUGGGAGGGAAAGCACUGUCAGAAAAGGUAAUUUUUUUUUUAAAGACAACAGAGGAUUGAGCAUCA
B7: 61493008_61495760_3952_CDS_ENSG00000170921_ENST00000424789|human|control|control (ssRNA)
RNA: GGGAGUUCUACAGUCCGACGAUCGCGUUUUGCCCUUGCUCUCGCAUAGUAAGCUUCAUAAGAUUUCGGUUUCAGCUCCAGGGCCUUAGUAGCAAAUUCCUCCGCCAUUCCAAAAUCGUUCAUUUUCCUGCGACACCGAGAGAGCAACAGAGGAUUGAGCAUCA
B8: 84624154_84629161_632_CDS_ENSG00000065615_ENST00000369681|human|control|control (ssRNA)
RNA: GGGAGUUCUACAGUCCGACGAUCAUAUAUGGCAAUGGUGACUAAAGAGUCUGUUUGGAACCAAUCAUAGCUUGGAUAACUAGGACCUUCUUUGGCAAGUGUAUCUGUCACUUGGCUCUUGGGAAGCAUGCCAUUUAAGACUUUCAACAGAGGAUUGAGCAUCA
B9: 135203144_135203264_3963_CDS_ENSG00000107290_ENST00000224140|human|control|control (ssRNA)
RNA: GGGAGUUCUACAGUCCGACGAUCUGGCUCAGGACACUGACGAAAUUUCUUUGGCGGCACUAUAGCAGGAGUUGUUCUACAACUUAGGUAAUUUGAACUUCUAUUCUGUCCUUUUUUGGCAUCUGAAUGAGUUUUCUUAGGGGUCAACAGAGGAUUGAGCAUCA
B10: chr1:244855233:244855234:+_ENSG00000121644_ENST00000302550|hu_mus|hu_hu_hu_mus_True|38_98 (ssRNA)
RNA: GGGAGUUCUACAGUCCGACGAUCCAUCAGAUGGUAGGCAUUGCCUUUAUACUCUUUCCCCAGUUCUUCUACAAUUUUCUCUAUAUCAUCUUCUAGAAAGUCCGUGCUUCCUAGAACAACAGCUUCUUUAAAUUUAAAUGUUUCCAACAGAGGAUUGAGCAUCA
B11: chr12:67691335:67691336:+_ENSG00000111530_ENST00000540319|hu_mus|FALSE|FALSE (ssRNA)
RNA: GGGAGUUCUACAGUCCGACGAUCCAUGGAGUCAUUUUUGGACAACUCUGACAACAGAUGUUCAAUAAGGUCUACAAAAACUAUAUUUCCGCAGCUCAUAACUAGGUGGCCAAGAGCAAUAAUUGUUCUUUUCCUCACUGCAAGCAACAGAGGAUUGAGCAUCA
B12: chr7:90019433:90019434:+_ENSMUSG00000057706_ENSMUST00000082237|mus_hu|mus_mus_mus_hu_True|78_108 (ssRNA)
RNA: GGGAGUUCUACAGUCCGACGAUCAAAAAUACAGUGUUUCUUUGCCAUAAGGCCAUAUAAAAAUAAAAAGAUUUAACCCAGCUACAAAAAAGUUCACUGAACUUAAAUUAAAAUACUUGUAAACAUCUUUGCAAUAUGAAAUAUCAACAGAGGAUUGAGCAUCA
B13: chr4:17845017:17845018:+_ENSG00000109805_ENST00000514176|hu_mus|hu_hu_hu_mus_False|98_108 (ssRNA)
RNA: GGGAGUUCUACAGUCCGACGAUCGCUUCCUAACUUAGAUCUUCAUUUAAGGAACUCUGCAAGGUUAAGUUUACUUUUCUGUAGCGCAGCUGUUUUGGCUCGUCUGGGUAAUCUCAUCUUCAUUUCUGAUGGUGGUUCAUGAUCCAACAGAGGAUUGAGCAUCA
B14: chr11:77340908:77340909:-_ENSG00000074201_ENST00000525064|hu_hu|hu_hu_hu_mus_True|8_18 (ssRNA)
RNA: GGGAGUUCUACAGUCCGACGAUCGUUUGGAUCCCUGGACACCGCAUGUAAACUAAUGGUGGGGUAUUCCAGUGAGAAUCCUAAUCCCGAACCAUCUAACCAGGACAGGCGGCUCUCAGCGAUGUAAAGGGUACCAGUGCCGAGCAACAGAGGAUUGAGCAUCA
B15: chr16:94651144:94651145:+_ENSMUSG00000040785_ENSMUST00000117648|mus_hu|mus_mus_mus_hu_True|48_48 (ssRNA)
RNA: GGGAGUUCUACAGUCCGACGAUCAUUUUCUUGAAUCAAGUGGCGAAUAACAUAGUCCACUGCUUCAUUUAGAAAAUUUCUGCUAGAAAAGCAUGUUGUAUAGUCUUCUGUGCUCAAAACUUUCCAAGAAAGCAAUUCUUUGAGCAACAGAGGAUUGAGCAUCA
B16: chr2:47388980:47388981:-_ENSG00000143933_ENST00000272298|hu_hu|motif|central (ssRNA)
RNA: GGGAGUUCUACAGUCCGACGAUCUUCAUCUGUUAACUUCUCUCCAAGGUUUGUCAUCACAUGGCGAAGUUCUGCAGCACGGAUAUAGCCAUUGCCAUCCUUAUCAAACACACGGAAUGCUUCUCUAAUUUCUUCUUCACUGUCCAACAGAGGAUUGAGCAUCA
B17: chr1:163112212:163112213:-_ENSG00000143248_ENST00000313961|hu_hu|hu_hu_hu_mus_False|1_98 (ssRNA)
RNA: GGGAGUUCUACAGUCCGACGAUCUUUUAUUAUCAGUAAGCAUGAGUUACAUACUAGGCAAAGUAUUGGAUACAAUAAUCAGGAAACAAACACUAUUGGUCCAGAAUUUAAAACUUUAUGAGCGAAGUGCUGGCACAGGAUUUACAACAGAGGAUUGAGCAUCA
B18: chr5:177634160:177634161:+_ENSG00000197451_ENST00000358344|hu_hu|FALSE|FALSE (ssRNA)
RNA: GGGAGUUCUACAGUCCGACGAUCACUGACAGUAUGGAACUUUUUCUCCAGAACCUUCUUCACGGGUUCUUCUUCUUUAAAGGUGAUAAACACAAAACCUCGUCUUUUGUUCAACUUUGGAUCCAUUGGCAAUUCAAUGGCCUCCAACAGAGGAUUGAGCAUCA
B19: chr3:55808730:55808731:-_ENSMUSG00000027799_ENSMUST00000029374|mus_hu|FALSE|FALSE (ssRNA)
RNA: GGGAGUUCUACAGUCCGACGAUCUGAAGUUGUAUGGAUUUUGAAUUCUUUUUCUUCUAUUAUACUGGAUGUACAAGUUAAGUCUACGCUACCGGUCAUGUGAGCAAGCAAUCCAAGAUCAUCACUAACACCAAGAUGUACUUGCAACAGAGGAUUGAGCAUCA
B20: chr3:176767854:176767855:-_ENSG00000177565_ENST00000430069|hu_hu|hu_hu_hu_mus_False|78_108 (ssRNA)
RNA: GGGAGUUCUACAGUCCGACGAUCGACAUCCUUGUUGCUGGGCACGUCCUGCCCUCCUUCUCGUAUACAGUGUCUAAGCACGAGCUGCGUAGGGCCACUCGUGCUGUUCUCACUGAGGUUCCAGAUUCUUGCCGUGGAGUCUCCCAACAGAGGAUUGAGCAUCA
B21: 117847759_117847879_214_3pUTR_ENSMUSG00000017715_ENSMUST00000132676|mouse|control|control (ssRNA)
RNA: GGGAGUUCUACAGUCCGACGAUCGAGGAGGGAUGCUCAGCGACCAGACUACCUGUCAGACUUCCAGCUGCUACCCUGCGCUCACAUAAAGGUCCAGGAGGAUUAAUAACAGCUCAGCGCCCGGAGUCCUGUCAGACUGAUAGCCAACAGAGGAUUGAGCAUCA
B22: 25593832_25616512_97_3pUTR_ENSG00000170558_ENST00000399380|human|control|control (ssRNA)
RNA: GGGAGUUCUACAGUCCGACGAUCAUAUUGUACUUUUCUUUUUCCAUUGCAGUUGCUAAACUUCACUGAAAGGAAAACAUACAAUUCUGCUUGGUUCUUUAAUUUCUCAGUGAAGAUACACACAUAACGCCUUAAUAAAAACAUCAACAGAGGAUUGAGCAUCA

The binders below were run against T1, UNK ZnF1-3 (human, UniProt Q9C0B0 31-174) (assay: nsRBNS (natural sequence RNA bind-n-seq); RBNS binding buffer (assumed for nsRBNS): 25 mM Tris pH 7.5, 150 mM KCl, 3 mM MgCl2, 0.01% Triton X-100, 500 ug/ml BSA, 20 U/ml SUPERase-In, 4 C; UNK is unkempt and MSI1 is Musashi-1; names of the RNAs are library labels; protein concentration not given here; high values mean tight binding).
T1 sequence: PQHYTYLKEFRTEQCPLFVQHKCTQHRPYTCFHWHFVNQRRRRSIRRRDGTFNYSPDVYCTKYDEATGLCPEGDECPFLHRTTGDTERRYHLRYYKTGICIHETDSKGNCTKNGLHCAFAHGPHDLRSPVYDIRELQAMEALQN

Binder	binding signal
B1	2.14 enrichment R
B2	1.83 enrichment R
B3	1.45 enrichment R
B4	2.63 enrichment R
B5	1.09 enrichment R
B6	1 enrichment R
B7	1.12 enrichment R
B8	0.833 enrichment R
B9	1.18 enrichment R
B10	1.24 enrichment R
B11	0.889 enrichment R
B12	1.45 enrichment R
B13	0.52 enrichment R
B14	1.31 enrichment R
B15	0.373 enrichment R
B16	0.864 enrichment R
B17	1.41 enrichment R
B18	0.397 enrichment R
B19	0.759 enrichment R
B20	0.431 enrichment R
B21	1.48 enrichment R
B22	0.662 enrichment R
